# Measured values as given in PubChem BioAssay AID504706 (National Center for Advancing Translational Sciences (NCATS), 2011).
# The campaign covered roughly 320,000 compounds. About 200 (0.062%) were called active. The inconclusive results got no clear call from the source; some entries with a clear call stand among them for comparison. Calls follow the shape of the dose curve; as a rule, active = well fitted activation curve with a large enough effect; inconclusive = small, poorly fitted or top-dose-only effect; inactive = no such curve, though single readings can be large or run the other way. No potency is given beside an inconclusive call; the fits are too rough.
# Assay: qHTS assay for re-activators of p53 using a Luc reporter; also: nearly all actives have a fitted effect of over 45% in size; as to activity change, positive = activation: % of control where 0% means no effect
# Conditions: H1299 p53-A138V BP100-luciferase reporter, luminescence, 24 h; series mostly up to 92.2 µM; activity change, positive = activation: at the top concentration
# How it was run: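 p53-null H1299 cells stably carrying temperature-sensitive p53-A138V and a BP100-luciferase reporter were pinned with compounds (4-point, 1:5 series) and held 24 hrs at 37 deg C. Luminescence was read 10 min after detection reagent.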
# Potency is read from the fitted curve at half-maximal effect; tags tell the direction and shape of the fitted curve.
SMILES,Potency,"activity change, positive = activation"
O=C(N/N=C/c1ccccc1O)NC12CC3CC(CC(C3)C1)C2,"inconclusive [activator, full curve, poor fit]",
Cc1ccc(S(=O)(=O)N[C@@H](Cc2ccccc2)C(=O)N2CCC[C@@H]2C(=O)O)cc1,,inactive: -0.389%
CC(C)c1nnc(NC(=O)C2CCN(c3cnccn3)CC2)s1,"inconclusive [activator, single point]",
CC(C)=CCN1CCN(Cc2cccn2-c2ccccn2)CC1CCO (stereo unspecified),,inactive: -2.85%
Nc1nn(-c2ccccc2)c(N)c1N=Nc1ccccc1F,"inconclusive [activator, partial curve, poor fit]",
CC(=O)c1ccc(N2Cc3ccccc3/C2=N\C(=O)Nc2ccccc2)cc1,"inconclusive [activator, partial curve, poor fit]",
O=C(O)/C=C/C(=O)c1ccc(O)cc1,"inconclusive [activator, single point]",
COC(=O)Nc1ccc(S(=O)(=O)N2CCCC(C(=O)Nc3cccc4c3OCCO4)C2)cc1 (stereo unspecified),,inactive: -1.75%
O=C1c2ccccc2C(=O)N1CCOc1cccc(Br)c1,"inconclusive [activator, single point]",
CCOC(=O)C1=C(CC)Nc2ccccc2N/C1=N\S(=O)(=O)c1ccc(C(=O)OCC)cc1,,inactive: -2.86%
CCOc1ccc(C(CC(=O)O)NC(=O)c2ccco2)cc1 (stereo unspecified),,inactive: 18.6%
COc1ccc(CN(C(C)=O)c2ccccc2C(=O)O)cc1,,inactive: -1.77%
CCC(=O)Nc1cccc(NC(=S)NC(=O)c2cccs2)c1,"inconclusive [activator, partial curve, poor fit]",
CCC(CC)c1nn2c(N)c(/C=C3\C=Nc4ccccc43)c(=O)nc2s1,,inactive: 5.4%
O=C(O)c1ccc(CN(c2ccccc2)S(=O)(=O)c2ccccc2)cc1,"inconclusive [activator, single point]",
O=C1OC(Nc2ccc3c(c2)OCO3)c2ccccc21 (stereo unspecified),"inconclusive [activator, partial curve, poor fit]",
O=C1/C(=C/Nc2cccc([N+](=O)[O-])c2)CCc2ccccc21,"inconclusive [activator, full curve, poor fit]",
COc1ccc(Cn2c(C3CC3)nc3ccc(NC(=O)C4CC4)cc3c2=O)cc1,"inconclusive [activator, full curve, poor fit]",
Clc1ccccc1-c1nnc(-c2ccc3c(c2)OCO3)o1,"inconclusive [activator, partial curve, poor fit]",
NC(=O)c1cn(-c2ccccc2)nc1-c1cc2ccccc2oc1=O,,inactive: -1.92%
CCOC(=O)C1CCN(C(=O)c2cc3cc4ccc(C)cc4nc3o2)CC1,"inconclusive [activator, partial curve, poor fit]",
O=C(Nc1cccc([N+](=O)[O-])c1)C12CC3CC(C1)CC(n1cnc([N+](=O)[O-])n1)(C3)C2,,inactive: 0.489%
Cc1cc(C)c(C#N)c(Nc2cccc(C)c2C)n1,"inconclusive [activator, single point]",
CN1C2CCC1CC(NC(=O)c1ccc(Cl)cc1)C2 (stereo unspecified),,inactive: -2.6%

SMILES,Potency,"activity change, positive = activation"
COc1ccc(-c2csc(NCc3ccco3)n2)cc1C,"inconclusive [activator, partial curve, poor fit]",
O=C(Nc1nnc(-c2ccco2)s1)C1CC1,"inconclusive [activator, single point]",
CCOc1cc(/C=N/NC(=O)Nc2ccccc2)ccc1O,,inactive: 11%
FC(F)(F)c1ccccc1/C=N/Nc1ccccn1,"inconclusive [activator, single point]",
NC(=S)N/N=C/c1ccccc1OC(=O)c1cc2ccccc2oc1=O,"inconclusive [activator, partial curve, poor fit]",
COc1ccc(/C=C/C(=O)O/N=C(\N)c2ccccn2)cc1OC,"inconclusive [activator, full curve, poor fit]",
Cc1ccc(/C=C2\OC(=O)c3ccccc32)cc1,"inconclusive [activator, single point]",
N#Cc1c(N2C(=O)Nc3ccccc3N2O)sc2c1CCCCCC2,,inactive: 8.68%
CNc1ccccc1C(=O)OCC(=O)c1ccccc1,,inactive: 26.3%
Cc1cc(NC(=O)c2noc3c2CCCC3)no1,"inconclusive [activator, partial curve, poor fit]",
CC(=Nc1cccc(O)c1)c1sc2ccccc2c1O,"inconclusive [activator, partial curve, poor fit]",
Cc1nc2oc3ccccc3c(=O)c2cc1C(=O)O,,inactive: 6.29%
O=C(Nc1ccc(Br)cn1)c1cccc(S(=O)(=O)N2CCCC2)c1,,inactive: 16.5%
Cc1c(CCC(=O)O)c(=O)oc2cc(OCc3cccc(Cl)c3)ccc12,"inconclusive [activator, full curve, poor fit]",
C/C(NC(=O)c1ccccc1)=C1/C(=O)CC2C1C2(C)C (stereo unspecified),"inconclusive [activator, partial curve, poor fit]",
CC1(c2ccc3c(c2)OCO3)NC(=O)N(CC(=O)Nc2ccccc2[N+](=O)[O-])C1=O (stereo unspecified),,inactive: -1.77%
Cc1cc(C(=O)CSc2nc(N)cc(N)n2)c(C)n1CCc1ccc(F)cc1,,inactive: -9.09%
O=C(NNC(=S)NC(=O)c1cn(-c2ccccc2)nc1-c1ccccc1)c1ccncc1,"inconclusive [activator, single point]",
Cc1nnc(N2C(=O)c3cccc4cccc(c34)C2=O)s1,,inactive: 3.62%
CC(CN1CCCCC1)OC(=O)c1ccc2c(c1)OCCO2 (stereo unspecified),"inconclusive [activator, partial curve, poor fit]",
CC(C)CCNC(=O)C(=O)NCCC1=CCCCC1,"inconclusive [activator, partial curve, poor fit]",
Cc1cccc(OCCNS(=O)(=O)c2ccc(Cl)cc2)c1,,inactive: -2.44%
Nc1nc2nc[nH]c2c(=O)[nH]1,,inactive: 2.12%
CN1CCc2c(sc(/N=C/c3cccs3)c2C(N)=O)C1,"inconclusive [activator, single point]",

SMILES,Potency,"activity change, positive = activation"
Cc1ccc(C(=O)CSc2nnc(-c3ccccc3N)n2C)cc1,"inconclusive [activator, partial curve, poor fit]",
C/C(=N\N=C\c1ccc(N(C)C)cc1)c1cccc([N+](=O)[O-])c1,"inconclusive [activator, partial curve, poor fit]",
CC(C)N=c1c([N+](=O)[O-])nn(C)n1O,,inactive: 13.7%
CC(=O)c1sc(N/N=C\c2cccc(Br)c2)nc1C,"inconclusive [activator, partial curve, poor fit]",
CC(=O)c1ccc(NC(=O)c2noc(C(C)C)c2[N+](=O)[O-])cc1,"inconclusive [activator, partial curve, poor fit]",
COC(=O)c1sccc1-c1ccc(/C=N/OC(=O)c2cccs2)o1,,inactive: 4.65%
Cc1ccc(-n2c(O)c(/C=N/n3cnnc3)c3ccccc3c2=O)cc1,"inconclusive [activator, partial curve, poor fit]",
COc1ccc(/C=N/n2c(-c3cccs3)n[nH]c2=S)cc1,,inactive: -3.91%
CNC(=S)N(C1=NCC(c2ccc([N+](=O)[O-])cc2)S1)c1ccccc1 (stereo unspecified),"inconclusive [activator, single point]",
Cc1cc(C(=O)N/N=C/c2cc(Br)ccc2OC(=O)c2ccccc2)n[nH]1,"inconclusive [activator, single point]",
Cc1nnc(N/N=C/c2cccc(OCc3ccc(Cl)c(Cl)c3)c2)n1N,"inconclusive [activator, single point]",
O=C(NC(=S)Nc1cccc(O)c1)C1CCCCC1,"inconclusive [activator, partial curve, poor fit]",
CCCc1nc2ccccc2c(C(=O)OCC(=O)N2CCc3ccccc32)c1CC,,inactive: -2.32%
CCCOc1ccc(N2C(=O)CC(N(CCc3ccc(OC)c(OC)c3)C(=S)Nc3ccccc3)C2=O)cc1 (stereo unspecified),"inconclusive [activator, single point]",
Cc1sc2nc3ccc(NCc4ccco4)nn3c(=O)c2c1C,"inconclusive [activator, single point]",
O=C(O)C1C2CCC(O2)C1C(=O)Nc1ccc(F)c(Cl)c1 (stereo unspecified),"inconclusive [activator, single point]",
Cc1ccc(NC(=O)Nc2ccccc2)cc1[N+](=O)[O-],"inconclusive [activator, partial curve, poor fit]",
COC(=O)c1ccccc1-c1ccc(/C=N/NC(=O)c2cc3ccccc3o2)o1,,inactive: -7.27%
COc1ccc(NC(=O)c2ccc(C)cc2)c(OC)c1,"inconclusive [activator, full curve, poor fit]",
CC(NC(=O)c1ccco1)C(=O)Nc1nc(-c2ccccn2)cs1 (stereo unspecified),"inconclusive [activator, single point]",
CC(=O)c1c(C)[nH]c(C(=O)Nc2nc(-c3ccc(Cl)cc3)cs2)c1C,,inactive: -8.72%
COC(=O)C1CCN(C(=O)C2CCN(C(=O)[C@@H](NS(=O)(=O)c3ccc(C)cc3)C(C)C)CC2)CC1,,inactive: 5.87%
CCOc1ccc(C(=O)Nc2ccc3c(c2)OCCO3)cc1[N+](=O)[O-],"inconclusive [activator, partial curve, poor fit]",
